From PubChem BioAssay AID463173 (ICCB-Longwood Screening Facility, Harvard Medical School, 2010)
About 1,700 (3.3%) of roughly 52,000 compounds were called active. Rule as the data show it: active = survival mostly below about 52% (no sharp cut-off); inactive = mostly above about 56%. Some of the results follow.

tested on: Wild type; assay: growth inhibition of S. aureus wild type versus tarO mutant, primary screen, teichoic acid synthesis inhibitors, RN4220, OD600 (AID 463173); settings: S. aureus RN4220 wild type/DeltatarO growth, OD600, 18 h, active compounds read low, screened at 18.75 µg/mL (by protocol)

| Structure (SMILES) | survival |
| --- | --- |
| COc1ccc(-c2nnc3c4ccccc4c(-c4ccccc4)nn23)cc1 | inactive: 66% |
| CCOc1ccc(CCNC(=O)c2cccc(-n3c(C)nc4cccnc43)c2)cc1 | inactive: 138% |
| O=C(COc1ccc(Cl)cc1)NCCc1csc(-c2ccc(F)cc2)n1 | inactive: 73% |
| CCN(CC)C(=O)c1sc2c(c1C)c(=O)n(-c1ccc(Cl)c(Cl)c1)c(=O)n2CC(=O)Nc1cccc(OC)c1 | inactive: 82% |
| CCOC(=O)c1nnn(CC(=O)NC(=O)Nc2cccc(CC)c2)c1C(=O)OCC | inactive: 70% |
| CC(=O)c1cccc(NC(=O)c2nc3ccccc3nc2N2CCCCC2)c1 | inactive: 74% |
| Cc1ccc(Cl)cc1N1CCN(C(=O)C2CCN(S(=O)(=O)c3ccc4c(c3)oc(=O)n4C)CC2)CC1 | inactive: 66% |
| Nc1ccc2nc(CN3CCOCC3)[nH]c2c1 | inactive: 98% |
| O=C(Nc1ccc(F)cc1Cl)C1Cc2ccccc2N1C(=O)c1ccccc1 (stereo unspecified) | inactive: 94% |
| O=C(CCn1nc(-c2ccc(Cl)cc2)c2ccccc2c1=O)Nc1ccc(OC(F)(F)F)cc1 | inactive: 139% |
| COc1ccc(OC)c(CNC(=O)C2CCN(c3ncnc4c3nc3n4CCCCC3)CC2)c1 | inactive: 81% |
| CN1C(=O)C2(c3ccccc31)N(c1ccc(F)c(Cl)c1)C(=O)CS2(=O)=O (stereo unspecified) | inactive: 81% |
| COC(=O)c1cc(S(=O)(=O)NCC2CCN(Cc3ccccc3F)CC2)c[nH]1 | inactive: 72% |
| Cc1cc(C)c2c(n1)nn1c(C)c(CCC(=O)NCc3ccc(Cl)cc3)c(C)nc21 | inactive: 80% |
| Cc1ccc(C2=NN(CC(=O)NCCc3ccc(Cl)cc3)C(=O)CC2)cc1 | inactive: 121% |
| CCC(=O)N1CCc2cc(S(=O)(=O)CCC(=O)N3CCN(c4ccc(C(C)=O)cc4)CC3)ccc21 | inactive: 89% |
| CCOc1ccc(-c2cn3c(n2)sc2cc(C(=O)NCCc4ccc(OC)c(OC)c4)ccc23)cc1 | inactive: 69% |
| Cc1ccc(Cl)cc1NC(=O)CC1SC(N)=NC1=O (stereo unspecified) | inactive: 105% |
| Cc1cccc(NC(=O)N2CCC(n3c(C)nc4cccnc43)CC2)c1 | inactive: 85% |

| Structure (SMILES) | survival |
| --- | --- |
| COc1ccc(CCNC(=O)CCn2c(=O)c3cccn3c3cccnc32)c(OC)c1OC | inactive: 99% |
| CCOC(=O)N1CCC(NC(=O)c2ccc3c(c2)N(Cc2cc(C)ccc2C)C(=O)c2ccccc2S3=O)CC1 (stereo unspecified) | inactive: 80% |
| CCC(C)(C)NC(=O)Cn1c(=O)ccc2cc(S(=O)(=O)N3CCC(C)CC3)ccc21 | inactive: 101% |
| O=C(CSc1nccn1Cc1ccccc1)Nc1ccc2c(c1)OCO2 | inactive: 138% |
| O=C1C=CC(=O)C(c2ccc(Cl)cc2)=C1 | inactive: 55% |
| CCOc1cc(C(=O)NCCc2csc(-c3ccc(C)cc3)n2)cc(OCC)c1OCC | inactive: 76% |
| Cc1ccc(S(=O)(=O)/N=C(\N)Nc2nc3ccccc3o2)cc1 | inactive: 108% |
| Cc1cc(C)nc(Nc2ccc(S(N)(=O)=O)cc2)n1 | inactive: 119% |
| CN(C(=O)c1cc2c(=O)n3ccccc3nc2n1C)c1ccccc1 | inactive: 82% |
| Cn1cc(CCCC(=O)NCc2ccccc2Cl)c2ccccc21 | inactive: 80% |
| CCOC(=O)c1c(NC(=O)CSc2nc(-c3ccccc3)cc(C(F)(F)F)n2)sc(C)c1C | inactive: 66% |
| O=C1CC(=O)SC(c2ccccc2)=N1 | inactive: 105% |
| CC(=O)Nc1nnc(SCc2cc(=O)c3cccc(Cl)c3[nH]2)s1 | inactive: 89% |
| CCOc1ccc(CCNC(=O)Cn2nnc(-c3ccc(C(F)(F)F)cc3)n2)cc1OCC | inactive: 104% |
| O=C(CCC1CCCC1)NCc1ccccn1 | inactive: 111% |
| CC(=O)N1c2ccc(S(=O)(=O)N3CCCCCC3)cc2CC1C(=O)NCc1ccccc1F (stereo unspecified) | inactive: 131% |
| CCOc1ccc(OCC)c(Nc2cc(C)nc3nc(-c4ccco4)nn23)c1 | active: -1% |
| O=C(c1ccc([N+](=O)[O-])cc1)N1CCN(c2ccc(Nc3ccccc3)nn2)CC1 | inactive: 51% |
| CCOc1ccc(CCNC(=O)CN2C(=O)c3cccnc3Oc3ccc(Cl)cc32)cc1 | inactive: 71% |

| Structure (SMILES) | survival |
| --- | --- |
| O=C(CSc1nnc(Cc2ccccc2)o1)N(c1ccccc1)c1ccccc1 | inactive: 99% |
| Cc1ccc(CNc2ccc(-c3nc(-c4ccccn4)no3)cc2[N+](=O)[O-])cc1 | inactive: 124% |
| CCCCN(CCCC)CCNC(=O)c1cn(C)c2ccc(S(=O)(=O)N3CCCC3)cc2c1=O | inactive: 164% |
| CCOC(=O)c1c(S(=O)(=O)N2CCC(C(=O)Nc3ccc(OCC)cc3)CC2)c(C)n(C)c1C | inactive: 125% |
| CCc1ccc(C2c3c(-c4cc(C)ccc4O)n[nH]c3C(=O)N2Cc2cccnc2)cc1 (stereo unspecified) | inactive: 74% |
| Cc1ccc(OCc2nc(-c3ccc(C(=O)N4CCN(c5ccccc5)CC4)cc3)oc2C)cc1 | inactive: 87% |
| O=C(NCc1ccccc1Cl)c1ccc(Nc2nc3ccccc3n3nnnc23)cc1 | inactive: 86% |
| COc1ccc(OC)c(NC(=O)N2c3ccccc3Sc3ccccc32)c1 | inactive: 19% |
| Cc1nn(CCC(=O)N2CCN(c3ccccc3)CC2)c(C)c1S(=O)(=O)N1CCCC1 | active: -6% |
| CCc1cnc2c(c1SCC(=O)N1CCC(C)CC1)c(=O)n(C)c(=O)n2C | inactive: 69% |
| Cc1c(NC(=O)Nc2ccc(F)c(Cl)c2)c(=O)n(-c2ccccc2)n1C | inactive: 78% |
| Cc1cccc(N2CC(C)Cn3c2nc2c3c(=O)n(CC(=O)O)c(=O)n2C)c1 (stereo unspecified) | inactive: 133% |
| Cc1ccc(-n2nc(C)c3c(C(=O)NCc4ccc(F)cc4)cc(C)nc32)cc1 | inactive: 88% |
| CCOc1cc(CNC(=O)c2ccc3c(c2)N(C)C(=O)C2CCCCN32)cc(OCC)c1OCC (stereo unspecified) | inactive: 124% |
| COc1ccc2[nH]c(=O)c(C(c3nnnn3Cc3ccccc3)N3CCc4ccccc43)cc2c1 (stereo unspecified) | inactive: 109% |
| N#Cc1ccc(-c2cccnc2)n(CC(=O)N2CCOCC2)c1=O | inactive: 113% |
| O=C(Nc1ccc(F)cc1F)c1cc2c(=O)n3ccccc3nc2s1 | inactive: 79% |
| CCc1cccc(NC(=O)CCc2nc3cccnc3n2-c2ccccc2)c1 | inactive: 86% |
